Source: PubChem BioAssay AID1656 (Sanford-Burnham Center for Chemical Genomics, 2009)
Hit rate of the full screen: of about 240,000 compounds, about 950 (0.4%) were called active. Inconclusive results, whose numbers are uncertain, are shown with a selection of clear calls.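 The calls were made as follows: active = lipid droplet intensity inhibited by at least 50%, with more than 500 cells counted; inconclusive = wells with under 300 cells, treated as cytotoxic; inactive = the rest.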

Assay: inhibitors of hepatocyte lipid droplet formation, primary screen, imaging, high-throughput imaging, BODIPY stain (AID 1656)
Conditions: AML12 mouse hepatocytes, oleate lipid droplets, at 6.5 µM, stronger effect = higher value
Procedure, shortened: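 Test system: AML12 mouse liver cells; schedule: overnight exposure; technique: high-content imaging of BODIPY-stained droplets and DAPI nuclei; read-out: % inhibition of corrected integrated BODIPY droplet signal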

| Compound | inhibition |
| --- | --- |
| Cc1c(C(=O)OCC(C)C)[nH]c2c1C(=O)CC(c1ccco1)C2 (stereo not drawn) | inconclusive: -102% |
| Cc1cc(NC(=O)CSc2nc(-c3ccco3)cc(C(F)(F)F)n2)no1 | inconclusive: -165% |
| COc1ccc(-n2c(=O)c3c4c(sc3n(CC(=O)Nc3cc(C)[nH]n3)c2=O)CCC4)c(OC)c1 | active: 51.2% |
| COc1ccc(OCc2ccc(/C=N\NC(=O)c3sccc3C)o2)cc1 | inactive: 12.6% |
| CC(=O)/C(C#N)=C1\NC(=O)C(Cc2ccc(C)c(Cl)c2)S1 (stereo not drawn) | inactive: -4.5% |
| CCOC(=O)Nc1sc(=S)n(C)c1C | inconclusive: -176% |
| Cn1ccsc1=NC(=O)c1ccc(CS(C)(=O)=O)cc1 | inconclusive: -275% |
| Oc1ccc(C2=NNC(=NCc3ccc4c(c3)OCO4)SC2)c(O)c1 | inconclusive: -39.8% |
| O=C(Nc1ccc(-c2nc3ncccc3o2)cc1)c1ccc(Br)o1 | active: 55.7% |
| COc1ccc(C)cc1NC(=O)Nc1ccc(C(=O)N2CCCC2)cc1 | active: 69.5% |
| COc1ccc(-n2nc(C(=O)NCC(=O)N3CCN(c4ccccn4)CC3)c3ccccc3c2=O)cc1OC | inactive: 0% |
| COc1ccc(NC(=O)Nc2cccc3ccccc23)c(OC)c1 | active: 55.8% |
| c1ccc(-c2cn3c4c(sc3n2)CCCC4)cc1 | inactive: 7.7% |
| O=[N+]([O-])c1ccc(Nc2ccccc2F)nc1 | inactive: 2.1% |
| Cc1cccn2c(=O)c(C=O)c(Cl)nc12 | inactive: 1.2% |
| Cn1nc([N+](=O)[O-])nc1Sc1nnc(-c2ccccc2)o1 | inconclusive: -111% |
| COc1cccc(C(=O)NCCSc2ccc(C)cc2)c1 | inactive: -22.1% |
| O=C1Nc2ccc(Cl)cc2C12Nc1ccccc1-c1nnc(SCc3ccccc3F)nc1O2 (stereo not drawn) | inconclusive: -51.9% |
| CCCCCC(=O)N=Nc1c(O)[nH]c2ccc([N+](=O)[O-])cc12 | inconclusive: -15.3% |
| CCCC(=NCCc1c(C)[nH]c2ccccc12)C1=C(O)CC(c2ccccc2)CC1=O (stereo not drawn) | inconclusive: -165% |

| Compound | inhibition |
| --- | --- |
| CC(C)(C)C(=O)NC1CC2CCCC(C1)N2C(=O)Nc1ccccc1 (stereo not drawn) | inactive: -12.3% |
| Cc1ccc(CCNC(=O)c2nc(CS(=O)(=O)c3ccc(Cl)cc3)no2)cc1 | inactive: 8.8% |
| Cc1[nH]n(-c2ccccc2)c(=O)c1/C=N/N1C(=O)c2cccc3cccc(c23)C1=O | inactive: -4.8% |
| O=C(C1CC(=O)N(C2CCCCC2)C1)N1CCN(c2ccccc2)CC1 (stereo not drawn) | inconclusive: 109% |
| COc1cc(NC(=O)CSc2nc(C3CC3)nc3ccccc23)cc(OC)c1 | inactive: 7.9% |
| Nc1nonc1-n1nnc(C(=O)N/N=C/c2ccc(OCc3ccccc3)cc2)c1CNc1ccccc1 | inactive: 6% |
| COc1cc(Cl)c(C)cc1NC(=O)CCCn1c(=O)oc2ccccc21 | inactive: 4.7% |
| COc1cc(-c2noc(C)c2/C=C/c2cccc([N+](=O)[O-])c2)cc(OC)c1OC | inconclusive: -235% |
| CNC(=O)c1[nH]cnc1C(=O)Nc1ccccc1C | inconclusive: -74% |
| COC(=O)CNC(=O)C12CC3(C)CC(C)(CC(C)(C3)C1)C2 | inactive: -18.1% |
| CC(C)(C)C(=O)/C=c1\[nH]c(=O)/c(=C\c2ccc(F)cc2)s1 | active: 67% |
| CC(C)n1cc(/C=C2/NC(=O)N(c3cccc(Cl)c3)C2=O)c2ccccc21 | inactive: -1.5% |
| Cc1ccccc1Nc1nc(N)nc(CSc2nnnn2-c2ccccc2)n1 | inconclusive: -151% |
| Cc1ccc(C(=O)Nc2ccc3c(c2)OCCO3)cc1 | inactive: 10.4% |
| C=CCn1c(C)nnc1SCC(=O)Nc1nccs1 | inactive: 11.4% |
| C#Cc1ccc([C@H]2C=C(C(=O)OCC=C)O[C@@H](OCC)[C@@H]2CCCO)cc1 | inactive: -26% |
| Nc1cc(Nc2ccccc2)c2nonc2c1[N+](=O)[O-] | active: 101% |
| O=C(COc1ccccc1-c1ccccc1)N/N=C/c1ccc2ccccc2c1 | inconclusive: -248% |
| C=C1C(=O)C=C2CN(C(=O)c3ccccc3)[C@@](Cc3ccc(F)cc3)(C(=O)OC)[C@@H]12 | inconclusive: -298% |
| CCC1(c2ccccc2)NC(=O)N(CC(=O)N(C)Cc2c(F)cccc2Cl)C1=O (stereo not drawn) | active: 81.2% |

| Compound | inhibition |
| --- | --- |
| COc1ccc2cc(C(=O)NCc3ccccc3)c(=O)oc2c1 | inactive: 0.2% |
| COC(=O)c1cc(C)sc1NC(=O)C1CC(=O)NN1Cc1ccccc1 (stereo not drawn) | active: 86.3% |
| CN(c1ccccc1)S(=O)(=O)c1cccc(NC(=O)CSc2nnc(N)s2)c1 | inconclusive: 11% |
| COc1ccccc1/C=C1\SC(=S)N(CC(=O)NC2CCS(=O)(=O)C2)C1=O (stereo not drawn) | inconclusive: 122% |
| Cc1nc2cc(N)ccc2n1-c1ccccc1 | inactive: -8.1% |
| O=C(CCC(=O)c1ccc(F)cc1)Nc1cccc(S(=O)(=O)Nc2cccc(Cl)c2)c1 | active: 50.7% |
| Cc1sc(NC(=O)c2ccco2)c(C(Nc2ccccn2)c2ccccc2)c1C (stereo not drawn) | inconclusive: 28.7% |
| COc1cc(C(=O)Oc2ccccc2/C=N/NC(=O)c2ccc(Cl)cc2)cc(OC)c1OC | inactive: -10.2% |
| CCOc1ccc(CNC(=O)CCCc2cn(C)c3ccccc23)cc1OC | inactive: 36.7% |
| CCOc1ccc(N2CC(C(=O)NCCc3ccc(F)cc3)CC2=O)cc1 (stereo not drawn) | inconclusive: 124% |
| COc1cc(C2C(C#N)=C(N)Oc3cc(N)ccc32)cc(OC)c1OC (stereo not drawn) | inconclusive: -167% |
| CSCCOC(=O)c1[nH]c2c(c1C)C(=O)CC(c1ccco1)C2 (stereo not drawn) | inconclusive: -49.8% |
| Cc1ccc(NS(=O)(=O)c2ccc(-c3cnc(C4CC4)o3)cc2)c(C)c1 | inconclusive: -69.1% |
| O=S1(=O)CCN(Cc2ccccc2C(F)(F)F)CC1 | inconclusive: 130% |
| Cc1c(C(=O)N/N=C/c2ccc(N(C)C)cc2)[nH]c2ccc(Cl)cc12 | inconclusive: -131% |
| COCCCN=C1NN=C(c2cc(C)n(Cc3ccco3)c2C)CS1 | inconclusive: -110% |
| CC(Oc1ccc(F)cc1)C(=O)Nc1ccccc1N1CCCCC1 (stereo not drawn) | inconclusive: 114% |
| Cc1ccc(-c2ccc(/C=C3\SC(N4CCOCC4)=NC3=O)o2)cc1 | inconclusive: -70.5% |
